# Test results: the supplement of paper PMC10369915
# This is one part of the list. Rule as the data show it: active = 3.2 or more and inactive = the rest. Only a few entries rise above the background.
# Tests used:
# Assay in all cases: enrichment score (SH2-bound / input frequency) (ratio); bacterial display of known human phosphotyrosine sites (pTyr-Var adds point mutants) read by sequencing; higher = stronger binding; tyrosines were phosphorylated by kinases first
# Settings in all cases: peptide library: pTyr-Var
# SHP2 C-SH2 domain E139D = target: SHP2 C-SH2 domain E139D
# [1] = target: SHP2 C-SH2 domain wild-type
# SHP2 N-SH2 domain L43F = target: SHP2 N-SH2 domain L43F
# SHP2 N-SH2 domain T42A = target: SHP2 N-SH2 domain T42A
# SHP2 N-SH2 domain T52S = target: SHP2 N-SH2 domain T52S
# [2] = target: SHP2 N-SH2 domain wild-type
# 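Also: displayed peptides selected on beads carrying the immobilized SH2 domain, with library peptides lacking any tyrosine serving as negative controls.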
Binder,enrichment score (SHP2 C-SH2 domain E139D),enrichment score [1],enrichment score (SHP2 N-SH2 domain L43F),enrichment score (SHP2 N-SH2 domain T42A),enrichment score (SHP2 N-SH2 domain T52S),enrichment score [2]
FIGRIYLFLTK [GARS1_Y414_YF],inactive: 1.81,inactive: 1.72,inactive: 1.33,inactive: 1.46,inactive: 1.86,inactive: 1.39
TKDTFYKQRMF [GBA_Y451_P454R],inactive: 0.536,inactive: 0.575,inactive: 0.589,inactive: 0.617,inactive: 0.517,inactive: 0.682
RIVEIYSRRLR [GCH1_Y175_Q180R],inactive: 0.229,inactive: 0.225,inactive: 0.187,inactive: 0.241,inactive: 0.237,inactive: 0.276
GDEVEYMLVSF [GCLC_Y53],inactive: 0.513,inactive: 0.39,inactive: 0.45,inactive: 0.431,inactive: 0.449,inactive: 0.62
EIRTQYEVMAS [GFAP_Y242_A244V],inactive: 0.717,inactive: 0.642,inactive: 0.708,inactive: 0.793,inactive: 0.652,inactive: 0.828
NACGLYHKMNG [GATA5_Y216],inactive: 1.61,inactive: 1.49,inactive: 1.27,inactive: 1.17,inactive: 1.07,inactive: 1.49
NTFEKYWPFFQ [GATM_Y103_YF],inactive: 1.62,inactive: 1.42,inactive: 1.39,inactive: 1.58,inactive: 1.64,inactive: 1.6
ASSPVYVPTTR [GATA6_Y188],inactive: 0.563,inactive: 0.591,inactive: 0.665,inactive: 0.478,inactive: 0.616,inactive: 0.636
FEGAIYRKDIG [GART_Y417_V421I],inactive: 0.897,inactive: 0.713,inactive: 0.963,inactive: 0.783,inactive: 0.677,inactive: 0.825
NACGLYHTMNG [GATA5_Y216_K218T],inactive: 1.18,inactive: 1.19,inactive: 1.44,inactive: 1.22,inactive: 0.971,inactive: 1.38
QPEDIYHQTWA [GBA_Y244_G241E],inactive: 0.943,inactive: 0.802,inactive: 1.1,inactive: 0.909,inactive: 1.32,inactive: 0.807
RENGPYYASYP [GDAP2_Y487_T489A],inactive: 0.609,inactive: 0.803,inactive: 0.542,inactive: 0.46,inactive: 0.544,inactive: 0.847
DGTGHYLCNAC [GATA5_Y208],inactive: 0.84,inactive: 0.986,inactive: 0.819,inactive: 0.643,inactive: 0.695,inactive: 0.744
ETALHYIHDGI [GATD3A_Y250],inactive: 0.825,inactive: 0.841,inactive: 0.762,inactive: 0.929,inactive: 0.916,inactive: 1.01
FRTGHYLCNAC [GATA1_Y223_D218Y_YF],inactive: 1.56,inactive: 1.44,inactive: 1.73,inactive: 1.2,inactive: 1.66,inactive: 1.43
NACGLYYKLHN [GATA2_Y376],inactive: 0.87,inactive: 1.12,inactive: 0.907,inactive: 0.979,inactive: 0.878,inactive: 0.975
SKKSTYQALLD [GANC_Y43],inactive: 0.688,inactive: 0.318,inactive: 0.535,inactive: 0.658,inactive: 0.36,inactive: 0.439
AAPAAYDAADT [GAMT_Y27],inactive: 0.471,inactive: 0.364,inactive: 0.428,inactive: 0.345,inactive: 0.498,inactive: 0.501
NACGLYFKLHN [GATA2_Y376_YF],inactive: 0.617,inactive: 0.914,inactive: 0.707,inactive: 0.54,inactive: 0.761,inactive: 0.905

Binder,enrichment score (SHP2 C-SH2 domain E139D),enrichment score [1],enrichment score (SHP2 N-SH2 domain L43F),enrichment score (SHP2 N-SH2 domain T42A),enrichment score (SHP2 N-SH2 domain T52S),enrichment score [2]
AAETTYDKILK [GDNF_Y156],inactive: 1.28,inactive: 1.27,inactive: 0.801,inactive: 0.823,inactive: 0.708,inactive: 1.23
QRASDYYSQQM [GBP6_Y333_A331S],inactive: 0.529,inactive: 0.409,inactive: 0.404,inactive: 0.388,inactive: 0.424,inactive: 0.444
ETRWKYHFEVV [GCNT3_Y267],inactive: 0.791,inactive: 1.2,inactive: 0.939,inactive: 0.718,inactive: 1,inactive: 1.23
KLADIYQAELR [GFAP_Y116_V115I],inactive: 0.766,inactive: 0.886,inactive: 0.918,inactive: 0.73,inactive: 1.04,inactive: 0.952
ENGPFYTSFPP [GDAP2_Y488_YF],inactive: 0.673,inactive: 0.806,inactive: 0.68,inactive: 0.603,inactive: 0.854,inactive: 1.04
QPGDICHQTWA [GBA_Y244_Y244C],inactive: 0.914,inactive: 1.27,inactive: 1,inactive: 1.15,inactive: 1.21,inactive: 1.47
VDGSVYKLPPS [GCK_Y413_H416P],inactive: 0.598,inactive: 0.644,inactive: 0.712,inactive: 0.572,inactive: 0.56,inactive: 0.532
LFNQDYPIHCV [GATM_Y227_S231C_YF],inactive: 1.28,inactive: 1.25,inactive: 1.78,inactive: 0.706,inactive: 1.09,inactive: 1.18
NTFENYWPFFQ [GATM_Y103_K102N_YF],inactive: 1.77,inactive: 1.48,inactive: 1.61,inactive: 1.51,inactive: 1.57,inactive: 1.33
ENGPYYASYPP [GDAP2_Y488_T489A],inactive: 0.675,inactive: 0.488,inactive: 0.575,inactive: 0.586,inactive: 0.489,inactive: 0.648
PVFQVYPLLNC [GATA1_Y78],inactive: 0.96,inactive: 0.952,inactive: 0.892,inactive: 0.878,inactive: 0.905,inactive: 1.1
NTYEKYWPFYQ [GATM_Y103],inactive: 1.49,inactive: 1.19,inactive: 1.57,inactive: 1.25,inactive: 1.25,inactive: 1.46
LFNQDYPIHSV [GATM_Y227_YF],inactive: 0.847,inactive: 0.647,inactive: 0.655,inactive: 1.16,inactive: 1.1,inactive: 1.79
LYNQDYPIHCV [GATM_Y227_S231C],inactive: 0.78,inactive: 1.17,inactive: 0.975,inactive: 0.84,inactive: 0.822,inactive: 1.06
QRAADYFSQQM [GBP6_Y333_YF],inactive: 1.04,inactive: 0.849,inactive: 0.641,inactive: 0.733,inactive: 0.612,inactive: 0.859
ADRSCYDLSCR [GARS1_Y467_H472R],inactive: 3.02,inactive: 2.66,inactive: 2.67,inactive: 2.67,inactive: 2.81,inactive: 2.19
ITNLLYHLVGW [GBA_Y412_V414L],active: 4.26,active: 3.64,inactive: 2.98,inactive: 3.16,active: 4.34,active: 3.26
LYNQDYPIHSV [GATM_Y227],inactive: 0.941,inactive: 0.86,inactive: 1.03,inactive: 0.746,inactive: 0.739,inactive: 0.982
